# According to PubChem BioAssay AID1508624 (National Center for Advancing Translational Sciences (NCATS), 2021):
# Screen size: about 48,000 compounds; about 120 (0.25%) were called active. About 4% were inconclusive and are not listed. Calls follow the shape of the dose curve; as a rule, active = well fitted activation curve with a large enough effect; inconclusive = small, poorly fitted or top-dose-only effect, or another doubt; inactive = no such curve, though single readings can be large or run the other way. Some of the results follow.
# Assay: Primary qHTS for Identification of Small Molecule Activators of Huntingtin-Antisense Promoter Activity; also: nearly all actives have a fitted effect of over 55% in size
# Details: HEK293 HTT-AS promoter firefly luciferase reporter (activity 0% = vehicle and -100% = no light), 24 h; series mostly up to 57.5 µM; activity change, positive = activation: at the top concentration
# Text: Assay Provider: Russell L. Margolis M.D.
# Department Neurology, Johns Hopkins University School of Medicine, Baltimore, MD
# Huntington's Disease (HD) is a neurodegenerative disorder caused by a CAG repeat expansion in exon 1 of huntingtin (HTT). While there are currently no disease-modifying treatments for HD, recent efforts have focused on development of nucleotide-based therapeutics to lower HTT expression. As an alternative to siRNA or oligonucleotide methods, we hypothesized that suppression of HTT expression might be accomplished by small molecules that either (1) directly decrease HTT expression by suppressing HTT promoter activity or (2) indirectly decrease HTT expression by increasing the promoter activity of HTT-AS, the gene antisense to HTT that appears to inhibit expression of HTT.
# We developed and employed a high throughput screen for modifiers of HTT and HTT-AS promoter activity using luminescent reporter HEK293 cells; of the 52,041 compounds tested, we identified 898 replicable hits. We used a rigorous stepwise approach to assess compound toxicity and the capacity of the compounds to specifically lower huntingtin protein in 5 different cell lines, including HEK293 cells, HD lymphoblastoid cells, mouse primary neurons, HD iPSCs differentiated into cortical-like neurons, and HD hESCs. We found no compounds which were able to lower huntingtin without lowering cell viability in all assays, though the potential efficacy of a few compounds at non-toxic doses could not be excluded.
# SEQUENCE No. (1, 2, 3, etc.); […] (e.g., Cells, Incubation, Reagent, etc.); VALUE and DESCRIPTION.
# 1; Reagent; 4 uL; 2,500 Hek293 luciferase reporter cells per wells
# 3; Compound; 23 nL; Control inhibitor / compound library
# 5; Reagent; 2.5 uL; Firefly Luc reagent; Dual-Glo Luciferase Reporter Assay System (Promega)
# 6; Time; 10 min; room temperature incubation
# 7; Detection; Luminescence; FLuc
# NOTES (numbers refer to sequence above)
# 1; High-throughput screening, measuring luminescence from a Hek293 luciferase reporter, was performed in 1,536 well white-walled tissue-culture treated plates. 2,500 cells were plated in 4 µL of Opti-MEM per well using a Multidrop Combi Reagent Dispenser (ThermoFisher).
# 2; Assay plates were cultured for 24 hours.
# 3; Control inhibitor (PTC124; final concentration of 50 uM) and compound library (at final concentrations of 460 nM - 57.5 uM) were added to the assay plate using the Kalypsis Pintool Robotic System equipped with 1536 pinheads.
# 4; Cells were then incubated for 24 hours at 37 degrees C prior to luminescence measurements.
# 5; In all cases, luminescence was measured using the Dual-Glo Luciferase Reporter Assay System (Promega) following the manufacturer's instructions.
# 6; Room temperature incubation.
# 7; Luminescence signal was obtained using the PerkinElmer ViewLux plate reader. Results were normalized to vehicle control (0% activity) and zero RLU (-100% activity).
row,SMILES,"activity change, positive = activation"
1,COc1ccc(C(=O)NCC(c2ccc3c(c2)OCO3)N2CCOCC2)cc1OC (stereo unspecified),inactive: -9.15%
2,CC(=O)Nc1ccc(Nc2ncnc3sc4c(c23)CCCC4)cc1,inactive: -11.8%
3,CCn1c(CC2C(=O)N(C)c3ccc(Br)cc32)nc2ccccc2c1=O (stereo unspecified),inactive: -15.5%
4,Cc1cccc(C(=O)N2CCc3cc(CNS(=O)(=O)c4cccs4)ccc32)c1,inactive: -33.1%
5,Cc1ccc2nc(N(Cc3cccnc3)C(=O)CCOc3ccccc3)sc2c1,inactive: 10.5%
6,CCc1cc2c(cc3c(=O)n(CC(=O)NCCOC)nc(CC)n32)s1,inactive: 7.32%
7,CCOC(=O)c1ccc(NC(=O)Cn2cnc3sc(C(=O)OCC)c(C)c3c2=O)cc1,inactive: -21%
8,CCc1ccc(NC(=O)CSc2nc3c([nH]c4ccccc43)c(=O)n2-c2cccc(OC)c2)cc1,inactive: -32.5%
9,COc1cc(C)ccc1OCCSc1nc2ccc(NC(C)=O)cc2s1,inactive: -7.56%
10,CCCCCn1c(=O)c2c(nc3n2CCN3c2ccc(Br)cc2)n(C)c1=O,inactive: -10.1%
11,CCC(Sc1nnc2c3ccccc3n(C)c2n1)C(=O)Nc1nnc(C(C)C)s1 (stereo unspecified),inactive: -16.2%
12,CCOc1ccc(NC(=O)CSc2nc(=O)[nH]c3c2CCC3)cc1,inactive: -23.6%
13,O=C(CSc1nc2c(cnn2-c2ccc(F)cc2)c(=O)[nH]1)Nc1ccccc1C(F)(F)F,inactive: -15.5%
14,CCC(=O)N1CCc2cc(S(=O)(=O)CCC(=O)NCc3ccc(OC)cc3)ccc21,inactive: -11.3%
15,COc1ccccc1NC(=O)C1=C(C)Nc2nc(SCc3cccc(F)c3)nn2C1c1ccc(C(=O)O)cc1 (stereo unspecified),inactive: -5.96%
16,COc1cccc(CNC(=O)c2cc3ccc4cccnc4c3[nH]2)c1,inactive: 11.7%
17,Cc1cccc(-c2nc(SCC(=O)N(C)c3ccccc3)c3c(=O)n(C)c(=O)n(C)c3n2)c1,inactive: -1.89%
18,O=C(c1ccco1)N1CCN(C(=O)c2cnn(-c3cccc(F)c3)c2C2CCNCC2)CC1,inactive: -1.15%
19,CCCN1C(=O)C2(c3ccccc31)c1c(oc3ccccc3c1=O)C(=O)N2CCCOC(C)C (stereo unspecified),inactive: -27.9%
20,O=C(O)c1ccc(C2Nc3ccccc3-c3nnc(SCc4ccc(Cl)cc4)nc3O2)cc1 (stereo unspecified),inactive: -11.8%
21,Cn1c(=O)cc(SCC(=O)N2CCN(c3ccccc3)CC2)c2ccccc21,inactive: 24.5%
22,COc1cccc(C(=O)Nc2ccc(C(=O)OCc3cc(=O)n4nc(C5CC5)sc4n3)cc2)c1,inactive: -12.9%
23,COc1cc(OC)c(NC(=O)N2CC=C(c3c[nH]c4ccccc34)CC2)cc1Cl,inactive: -21.8%

row,SMILES,"activity change, positive = activation"
1,CC1CCN(c2cc(N3CCN(C)CC3)ccc2NC(=O)c2cc(C#N)c[nH]2)CC1,inactive: -2.96%
2,O=C(Cn1c(=O)n2nc(-c3cccc(F)c3)nc2c2ccccc21)N1CCN(c2ccccc2F)CC1,inactive: -3.93%
3,O=C(c1cccc(Cl)c1)N1CCC(c2nc3ccccc3o2)CC1,inactive: -18.2%
4,CC1CCN(C(=O)C(C)Sc2nc(-c3ccccc3)cc(C(F)(F)F)n2)CC1 (stereo unspecified),inactive: -37.8%
5,COc1ccc(OC)c(NC(=O)c2c(C)oc3ncnc(N4CCOCC4)c23)c1,inactive: -9.97%
6,CCCCn1c(=O)nc2n(-c3ccc(F)cc3)c3ccccc3cc-2c1=O,inactive: -12.9%
7,CC(Sc1nc2c([nH]c3ccccc32)c(=O)n1-c1ccccc1)c1ccccc1 (stereo unspecified),inactive: -29.3%
8,Cc1ccc(-c2cc(C(F)(F)F)n3ncc(-c4ccc(Cl)cc4)c3n2)cc1,inactive: 0%
9,CCOC(=O)C1CCN(C(=O)c2ccc3c(c2)N=C(CC)c2cc(C)ccc2S3)CC1,inactive: -30.8%
10,CN(C)CCN1C(=O)c2cccc3cc(N)cc(c23)C1=O,inactive: -42.9%
11,CCOC(=O)N1CCN(C(=O)Cn2ncc3c4ccccc4n(Cc4ccc(F)cc4)c3c2=O)CC1,inactive: -25.6%
12,CCOC(=O)c1c(NC(=O)COc2ccc(Br)cc2)sc(C(C)=O)c1C,inactive: 5.86%
13,COc1ccccc1-c1nnc(C2CCN(S(=O)(=O)c3ccc(F)c(C)c3)CC2)o1,inactive: -13.5%
14,O=C(COc1ccc(F)cc1)Nc1ccc(Cl)c(-c2nc3ccccc3[nH]2)c1,inactive: -20.8%
15,Cc1noc(C)c1S(=O)(=O)NCCc1csc2nc(-c3ccc(Cl)cc3)nn12,inactive: -25.2%
16,O=c1cc(CN2CCOCC2)occ1OCCCCCSc1ccnc2cc(C(F)(F)F)ccc12,inactive: -38.8%
17,CCCCc1nn2c(=O)cc(COC(=O)c3ccccc3NC(=O)c3cccc(C)c3)nc2s1,inactive: -0.784%
18,Cc1cccc(NC(=O)c2c(C)oc3ncnc(N4CCCCC4)c23)c1C,inactive: -22.6%
19,Cc1ccc(Cl)cc1NS(=O)(=O)c1ccc(N2CCCCS2(=O)=O)cc1,inactive: -27.5%
20,Cc1nc(-c2ccc(F)cc2)sc1CCNC(=O)c1ccc(C(C)(C)C)cc1,inactive: -26.6%
21,CC(=O)Nc1cccc(-c2cn3cccnc3n2)c1,inactive: 0%
22,Cc1ccc(NC(=O)Cn2c(=O)n(Cc3ccccc3)c(=O)c3c2c2cc(C)ccc2n3C)cc1,inactive: -6.25%
23,COc1ccc2nc(NC(=O)c3cc(=O)c4cc(C)c(C)cc4o3)sc2c1,inactive: -6.64%
